Experimental data published in PubChem BioAssay AID686979 (National Center for Advancing Translational Sciences (NCATS), 2013).
The whole screen tested about 420,000 compounds, of which about 50,000 (12%) were called active. The inconclusive results got no clear call from the source; some entries with a clear call stand among them for comparison. Calls come from the whole dose curve; as a rule, active = well fitted inhibition curve with a large enough effect; inconclusive = small, poorly fitted or top-dose-only effect; inactive = flat fitted curve, though single readings scatter. Potencies of inconclusive entries are left out as doubtful fits.

assay: qHTS for Inhibitors of human tyrosyl-DNA phosphodiesterase 1 (TDP1): qHTS in cells in presence of CPT; conditions: chicken DT40 Tdp1-/-;hTDP1 cells + 20 nM CPT, ATP luminescence, 48 h; activity change, negative = growth inhibition: at 46.2 µM (top of the series) unless noted; note: nearly all actives have a fitted effect of over 55% in size
Summary of the method: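 Cell growth measured by CellTiter-Glo luminescence after a minimum 48 h, 37 C compound exposure with 20 nM CPT in Tdp1-knockout DT40 cells stably expressing hTDP1, seeded 400/well; qHTS titration format.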
% is set by controls: 0 for no effect and ±100 for the full control effect; potency is the fitted concentration of half-maximal effect; tags give direction and shape of the fitted curve.

Structure (SMILES) | Potency | activity change, negative = growth inhibition
O=C(COc1ccc2ccccc2c1CN1CCOCC1)N1CCc2ccccc21 | inconclusive [inhibitor, partial curve] | –
CCCC(c1nnnn1C(C)(C)CC)N(Cc1ccco1)Cc1cc2ccc(OC)cc2[nH]c1=O (configuration not stated) | inconclusive [inhibitor, single point] | –
Clc1ccc(CCNc2nc3cc(Cl)c(Cl)cc3n3cnnc23)cc1 | inconclusive [inhibitor, single point] | –
COc1ccc(CCN2C(=O)N(c3cccc(C)c3)C(=O)C2CC(=O)Nc2ccccc2)cc1OC (configuration not stated) | active: 23.1 µM | –
CC1CN(S(=O)(=O)c2cccc(C(=O)Nc3ccc(S(=O)(=O)Nc4ncccn4)cc3)c2)CC(C)O1 (configuration not stated) | – | inactive: -5.7%
O=C1CC(=C(c2ccccc2)c2ccccc2)C(=O)N1CCN1CCN(c2cccc(Cl)c2)CC1 | inconclusive [inhibitor, single point] | –
O=c1[nH]c(=O)n(CCCc2ccccc2)cc1-c1ccccc1 | – | inactive: -27.5%
Cc1ccc2nc(SCCC(=O)O)cc(C)c2c1 | – | inactive: -10.4%
Cc1ccccc1Cn1c(-c2cncs2)nc2ccccc21 | inconclusive [inhibitor, single point] | –
Nc1cc2c(cc1Br)-c1ccc(F)cc1C2O (configuration not stated) | – | inactive: 1.8%
Cc1cccc2sc(N(CCCN(C)C)C(=O)CCc3ccccc3)nc12 | active: 25.9 µM | –
Cc1ccc(C)c(NC(c2ccccc2)c2nnc(-c3ccccc3F)o2)c1 (configuration not stated) | inconclusive [inhibitor, single point] | –
CC(C)CC(=O)/C(=C/c1ccc(N(C)C)cc1)n1cncn1 | – | inactive: -7.09%
COc1ccc(C(=O)N2CCOC2CNC(=O)C(=O)NCc2ccc(F)cc2)cc1 (configuration not stated) | – | inactive: 3.88%
COc1ccc(-c2nnc(SCC(=O)N3CCC(C)CC3)o2)cc1 | inconclusive [inhibitor, partial curve] | –
Cc1cccc(OCC(=O)Nc2cccc(C(=O)NCC(C)C)c2)c1 | inconclusive [inhibitor, single point] | –
Cc1cc([N+](=O)[O-])cnc1Sc1nccn1C | – | inactive: -10.3%
CC(=O)c1ccc(OCc2cc(C(=O)N3CCCCC3c3cccnc3)no2)cc1 (configuration not stated) | active: 20.6 µM | –
O=S1(=O)CCC(NC(=S)Nc2ccc3ccccc3c2)C1 (configuration not stated) | inconclusive [inhibitor, single point] | –
COc1ccc2cc(-c3ccn[nH]3)ccc2c1 | inconclusive [inhibitor, single point] | –
CC(=O)c1ccc(OC2(C)CCN(Cc3cc4ccccc4[nH]3)C2)cc1 (configuration not stated) | active: 4.11 µM | –
O=C1/C(=C/c2cccc(Br)c2)SC(=S)N1CCC(=O)N(CCO)c1ccccc1 | inconclusive [inhibitor, partial curve] | –
COc1ccccc1CC(=O)N1CCCc2cc(C)ccc21 | inconclusive [inhibitor, single point] | –
CCOc1ccc(NC(=O)c2cccc(NC(C)=O)c2)cc1S(=O)(=O)N1CCCC1 | inconclusive [inhibitor, single point] | –

Structure (SMILES) | Potency | activity change, negative = growth inhibition
COc1cc(-c2nc(SCC(=O)Nc3ccc4c(c3)OCO4)c(-c3ccccc3)[nH]2)cc(OC)c1OC | inconclusive [inhibitor, single point] | –
Cc1nn(-c2ccccc2)c(C)c1/C=N/NC(=O)CSc1nc2ccccc2c(=O)n1-c1ccccc1 | active: 16.4 µM | –
O=C1CN(C(=O)COC(=O)CCS(=O)(=O)c2ccccc2)c2ccccc2N1 | inconclusive [inhibitor, single point] | –
Cn1c(CC(=O)NNC(=O)c2ccc(F)cc2Cl)nc2ccccc21 | active: 16.4 µM | –
CN(CC(=O)Nc1ccc(Cl)cc1)S(=O)(=O)c1cccc2cccnc12 | inconclusive [inhibitor, single point] | –
S=C(NCC1CCCO1)c1ccc(Br)cc1 (configuration not stated) | inconclusive [inhibitor, single point] | –
O=C(N/N=C/c1cn[nH]c1-c1ccc(Cl)cc1)c1ccc([N+](=O)[O-])cc1 | – | inactive: -0.777%
Cc1cc2n(n1)C(c1sccc1C)Nc1c(C)cccc1-2 (configuration not stated) | inconclusive [inhibitor, single point] | –
Brc1ccc(CSc2nccn2-c2ccccc2)cc1 | – | inactive: -8.69%
c1ccc(CN2CCC(N=C3NN=C(c4ccc5c(c4)OCCO5)CS3)CC2)cc1 | – | inactive: -26.3%
COc1cc(NC(=O)c2ccc(NC3=NC4CS(=O)(=O)CC4S3)cc2)cc(OC)c1OC (configuration not stated) | – | inactive: -9.61%
COc1cc(C(C)=O)ccc1OCC(=O)N(CCC1=CCCCC1)c1c(N)n(Cc2ccccc2)c(=O)[nH]c1=O | inconclusive [inhibitor, single point] | –
Cc1cc(C)cc(NC(=O)Nc2ccc(N3CCCCC3)cc2)c1 | inconclusive [inhibitor, single point] | –
COc1ccc2cc(-c3ccsc3)ncc2c1 | – | inactive: -29.2%
O=[N+]([O-])c1ccc(-c2csc(NN=C3CCCC3)n2)cc1 | active: 4.11 µM | –
O=C(Nc1sc2c(c1C(=O)NCC1CCCO1)CCCC2)c1cccs1 (configuration not stated) | inconclusive [inhibitor, single point] | –
COc1ccc(Cl)c(-c2cc(C(=O)Nc3ccc(F)cc3)[nH]n2)c1 | active: 14.6 µM | –
O=C(COC(=O)c1ccc(Br)o1)NC12CC3CC(CC(C3)C1)C2 | – | inactive: 6.98%
COc1cc(/C=C/C(=O)OCC(=O)N2CC(=O)Nc3ccccc32)ccc1O | inconclusive [inhibitor, single point] | –
COc1cc(NC(=O)c2ccc3c(c2)OCCO3)ccc1NC(=O)c1ccccc1Cl | inconclusive [inhibitor, single point] | –
CCC(CC)C1C(C#N)=C(N)Oc2n[nH]c(C)c21 (configuration not stated) | active: 18.4 µM | –
CC(C)n1ncc2c(C(=O)Nc3cccc(S(=O)(=O)N(C)C)c3)cc(C3CC3)nc21 | active: 18.4 µM | –
FCc1nc2nc(Cl)c(Cl)nc2[nH]1 | – | inactive: -14.6%
Cc1ccc(NC(=O)CN(C)C(=O)c2cn(Cc3ccccc3)nc2-c2cccnc2)cc1 | – | inactive: -14%

Structure (SMILES) | Potency | activity change, negative = growth inhibition
O=C(CN1CCN(c2cccc(Cl)c2)CC1)N1CCCC1 | – | inactive: 4.11%
CCCN(CCC)CCc1cccc2c1CC(=O)N2 | – | inactive: -5.98%
Cc1cccc(C(=O)Nc2cc(NC(=O)c3cccs3)ccc2C)c1 | inconclusive [inhibitor, partial curve] | –
COc1cccc(-c2cn(C[C@H]3CC[C@@H]([C@@H]4CC[C@H](Cn5cc(-c6cccc(OC)c6)nn5)O4)O3)nn2)c1 | inconclusive [inhibitor, partial curve, poor fit] | –
CCN(CCCNC(=O)CCNC(=O)Cn1ccc2ccccc2c1=O)c1ccccc1 | inconclusive [inhibitor, single point] | –
CNC(=O)C1CCC(Cn2c(=O)c3sccc3n(CC(=O)N3CCCC(C)C3)c2=O)CC1 (configuration not stated) | – | inactive: -4.21%
CC1CCN(CC[S-])CC1.O.O.[Cl][Pt] | active: 1.26 µM | –
COc1cccc(CC(=O)Nc2ccc(S(=O)(=O)N3CCCCC3)cc2)c1 | inconclusive [inhibitor, single point] | –
CC(C)c1ccc(NC(=O)C(c2ccccc2)N2CCN(C(=O)c3ccco3)CC2)cc1 (configuration not stated) | inconclusive [inhibitor, single point] | –
CC(=O)O[C@H]1[C@H](O)[C@H](Oc2c(O)c(C)c3c4c2[C@@H](C)CC[C@@H]4[C@@H](C)C[C@H]3C=C(C)C)O[C@@H](C)[C@H]1O | inconclusive [inhibitor, single point] | –
Cc1cccc(CSCCNC(=O)CN(c2cc(C)cc(C)c2)S(C)(=O)=O)c1 | inconclusive [inhibitor, single point] | –
c1ccc(CN2CCN(c3nc(-c4ccccc4)nc(-n4ccnc4)n3)CC2)cc1 | active: 16.4 µM | –
CC(=O)Nc1ccc(-c2ccnc3c2CC(C)(C(=O)NCCC(F)(F)F)O3)cc1 (configuration not stated) | inconclusive [inhibitor, single point] | –
CCOc1ccc(-c2nnc(SCC(=O)Nc3cccc(C#N)c3)o2)cc1 | inconclusive [inhibitor, partial curve] | –
CCNc1nc(NCC)n2c(SCC(=O)c3ccc(C(C)C)cc3)nnc2n1 | active: 23.1 µM | –
Cc1ccc(S(=O)(=O)N2C[C@@H]3[C@H]4CC[C@H](C4)[C@@H]3[C@@H](C)[C@@H]2c2cn(Cc3ccccc3)c3ccc(F)cc23)cc1 | active: 20.6 µM | –
COc1ccc(OC)c(NC(=O)Cc2ccc(NC3=NC4CS(=O)(=O)CC4S3)cc2)c1 (configuration not stated) | – | inactive: 7.62%
O=C(NCc1ccccc1)c1cc(C2CCCN(S(=O)(=O)c3ccccc3)C2)on1 (configuration not stated) | inconclusive [inhibitor, single point] | –
CCCCOC(=O)c1c(C)oc2c1cc(NS(=O)(=O)c1cc(OC)ccc1OC)c1ccccc12 | inconclusive [inhibitor, single point] | –
CCOC(=O)C(C(=O)Cc1ccccc1)c1ccccc1 (configuration not stated) | – | inactive: 5.71%
c1ccc(CNc2c(C3CCNCC3)nc3scc(-c4ccccc4)n23)cc1 | inconclusive [inhibitor, single point] | –
CCCCCn1c(SCC(=O)c2ccccc2)nc2cc(C(=O)NCc3ccco3)ccc2c1=O | – | inactive: -0.862%
C=CCC(CC)C(=O)NC(=O)N1CCCc2ccccc21 (configuration not stated) | inconclusive [inhibitor, partial curve] | –
COC(=O)c1ccccc1NC(=O)c1ccccc1N(C)S(=O)(=O)c1ccccc1 | – | inactive: 25.6%
